Measurements as given in publication PMC4336329 (PLoS ONE, 2015).
Out of some 310,000 compounds screened, about 2,200 (0.71%) showed an effect of 50% or more. Effects have a minus sign here. Some of the results follow.

Target: human ether-à-go-go-related gene (hERG) potassium channel (human, UniProt Q12809)
Experiment: primary screen, population patch clamp on CHO cells stably expressing hERG

Sequence of human ether-à-go-go-related gene (hERG) potassium channel (Q12809 whole entry, looked up): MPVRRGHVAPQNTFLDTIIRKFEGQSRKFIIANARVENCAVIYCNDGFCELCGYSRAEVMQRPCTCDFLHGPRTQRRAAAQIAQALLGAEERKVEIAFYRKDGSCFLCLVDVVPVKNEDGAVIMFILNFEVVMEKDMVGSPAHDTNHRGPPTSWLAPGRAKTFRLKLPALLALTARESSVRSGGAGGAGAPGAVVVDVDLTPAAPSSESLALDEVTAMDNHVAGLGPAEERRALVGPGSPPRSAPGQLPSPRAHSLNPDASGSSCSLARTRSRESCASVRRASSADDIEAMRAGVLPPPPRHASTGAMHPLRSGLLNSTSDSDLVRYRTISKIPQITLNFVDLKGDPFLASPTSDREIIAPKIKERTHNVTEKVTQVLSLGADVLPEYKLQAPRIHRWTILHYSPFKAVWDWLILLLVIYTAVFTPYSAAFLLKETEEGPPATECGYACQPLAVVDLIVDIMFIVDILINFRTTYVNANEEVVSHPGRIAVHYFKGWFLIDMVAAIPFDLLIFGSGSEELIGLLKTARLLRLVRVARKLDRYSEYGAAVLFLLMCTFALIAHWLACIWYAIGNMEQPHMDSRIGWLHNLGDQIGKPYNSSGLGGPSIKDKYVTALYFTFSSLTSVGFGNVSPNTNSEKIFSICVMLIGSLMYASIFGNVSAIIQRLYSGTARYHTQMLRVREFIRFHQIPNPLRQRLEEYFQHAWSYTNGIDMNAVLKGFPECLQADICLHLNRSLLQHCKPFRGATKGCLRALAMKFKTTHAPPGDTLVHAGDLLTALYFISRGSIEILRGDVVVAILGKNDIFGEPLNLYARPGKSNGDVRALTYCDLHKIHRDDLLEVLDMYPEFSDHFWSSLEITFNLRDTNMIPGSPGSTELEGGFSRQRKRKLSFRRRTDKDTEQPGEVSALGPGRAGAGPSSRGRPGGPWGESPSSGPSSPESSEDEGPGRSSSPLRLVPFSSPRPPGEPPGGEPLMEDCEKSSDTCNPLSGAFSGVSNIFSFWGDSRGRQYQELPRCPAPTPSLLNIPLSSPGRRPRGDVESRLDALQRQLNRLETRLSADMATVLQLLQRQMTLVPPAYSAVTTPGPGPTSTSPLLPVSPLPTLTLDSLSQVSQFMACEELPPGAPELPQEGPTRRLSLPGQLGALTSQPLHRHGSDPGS

SMILES | hERG current change (%, negative = inhibition) at 1uM
Cc1ccc(-c2nn(-c3ccccc3)cc2/C=N/NC(=O)CSc2nnc(C)n2-c2ccccc2)cc1 | 6.69%
CCN(CC(=O)Nc1ccc2c(c1)OCCO2)C(=O)/C=C/c1cccc(Br)c1 | -3.19%
Cc1sc2nc(C3CC3)nc(N3CCN(C(=O)c4ccccc4F)CC3)c2c1C.Cl | 17.8%
COc1ccc(OC)c(-c2nn(-c3ccccc3)cc2C(=O)NCC(c2ccco2)N2CCCC2)c1 (centres unmarked) | -30.4%
COc1cccc(C(=O)N2N=C(c3cccc(OC)c3)CC2(O)C(F)(F)F)c1 (centres unmarked) | 17.9%
Br.Cc1ccc(C2=CSC3=NCCN23)c(C)c1 | -1.69%
CC1(C)C2SCC(=O)N2CCN1CC(=O)NN (centres unmarked) | 11.7%
NC(=O)CN1C(=O)C2C3c4ccccc4C(c4ccccc43)C2C1=O (centres unmarked) | 8.01%
CN1CCN(C(=O)c2c(NC(=O)c3ccco3)sc3c2CCC(C(C)(C)C)C3)CC1 (centres unmarked) | -33.3%
CN(c1ccc(C(=O)N2CCCCCC2)cc1)S(=O)(=O)c1ccccc1 | 13.8%
CCOC(=O)CN1C(=O)CSc2ccc(S(=O)(=O)N3CCOCC3)cc21 | 22.6%
OC(Cc1ccncc1)(c1ccccc1)c1ccccc1 | 4.75%
COc1ccc(C2C(C(N)=O)=C(C)Nc3nc(CCCO)nn32)cc1OC (centres unmarked) | 15.9%
CCN(CC)C(=O)C(=O)Nc1ccc(OCc2ccccc2)cc1 | 11.9%
O=C(Cn1cccc1C(=O)c1ccccc1)NCCN1CCOCC1 | 2.13%
Cc1onc(-c2c(F)cccc2Cl)c1C(=O)Nc1ccc(Cl)c(S(=O)(=O)N(C)C)c1 | 14.2%
CCCCOc1ccc(OCCNS(=O)(=O)N(C)C)cc1 | 0.16%
COc1ccc(C(=O)O)cc1NC(=S)NC(=O)C(c1ccccc1)c1ccccc1 | 16.4%
COc1ccccc1-n1cc(CN2CCCC(CO)(Cc3cccc(Cl)c3)C2)cn1 (centres unmarked) | -6.12%

SMILES | hERG current change (%, negative = inhibition) at 1uM
Cc1sc2nc(CSCC(=O)Nc3ccc(N4CCOCC4)cc3)[nH]c(=O)c2c1C | 3.76%
O=C(Nc1ccncc1)C1CCCN(S(=O)(=O)c2cccc3cccnc23)C1 (centres unmarked) | 0.8%
COc1ccc(S(=O)(=O)Nc2cccc(NC(C)=O)c2)cc1 | 0.273%
CC1CCC(=NNC(=O)Cc2ccccc2)CC1 (centres unmarked) | 14.1%
Cc1ccc(S(=O)(=O)N2CCOCC2)cc1NC(=O)C1CC(=O)N(c2ccc3c(c2)OCCO3)C1 (centres unmarked) | 19.8%
Cc1ccccc1OCC(=O)Nc1nc(-c2ccncc2)cs1 | 8.1%
COc1ccc(NC(=O)c2c(Cl)nc3ccccn23)cc1 | 1.32%
Cc1cccc(N(C)S(=O)(=O)c2ccc3[nH]c(=O)c(=O)[nH]c3c2)c1 | 4.77%
Cc1ccc(-c2cc3ccccc3nc2N2CCOCC2)cc1 | 9.78%
COc1ccc(-c2nc3cc(NC(=O)Cc4ccc(OC)c(OC)c4)ccc3o2)cc1 | 3.36%
O=C(NCc1ccco1)C1CC(=O)N(c2ccc(F)cc2)C1 (centres unmarked) | -19.2%
CC1CCN(c2nc3c(c(=O)[nH]c(=O)n3C)n2Cc2ccccc2Cl)CC1 | 8.48%
O=C(Cn1nc(-c2ccccc2)ccc1=O)Nc1ccc(N2CCN(C(=O)c3cccs3)CC2)cc1 | 5.01%
Cc1ccc(S(=O)(=O)Oc2ccccc2/C=N/NC(N)=S)cc1 | 12.9%
Cc1cc(S(=O)(=O)N2CCN=C2c2ccccc2)c(Cl)cc1Cl | 16.5%
Nc1cc(C(=O)O)ccc1Nc1ccc(F)c(F)c1 | 8.48%
Brc1cccc(CNCc2ccncc2)c1 | 9.3%
Clc1cccc(-c2nc(NCC3CCCO3)c3ccccc3n2)c1 (centres unmarked) | 5.37%
CCCCN(C(=O)c1ccc(C#N)cc1)c1c(N)n(CCC)c(=O)[nH]c1=O | 10.5%

SMILES | hERG current change (%, negative = inhibition) at 1uM
CC(=O)[C@H]1[C@@H]2C(=O)N(c3cccc(Cl)c3)C(=O)[C@@H]2[C@H]2c3ccccc3C=CN21 | 12.4%
COc1ccc(Oc2cccc(Cl)c2CNC(=O)CSCC(=O)O)cc1 | 10%
COC(=O)c1ccccc1N1CCS(=O)(=O)CC1 | -8.61%
CCCn1c(CCC(=O)O)ccc1-c1cccs1 | 8.19%
COc1ccc(OC)c(NC(=O)CSc2nn3c(=O)c(C)nnc3s2)c1 | 14.5%
Cc1c(C)n(C)c2ccc(C(=O)NCCCN3CCN(c4ccccc4F)CC3)cc12 | -9.04%
COc1ccc(C(=O)O)cc1Nc1cc(C)nc2ncnn12 | 10.6%
O=C(COC(=O)c1ccccc1F)NC1CCCC1 | 11.7%
CCC(=O)N1N=C(c2ccc(C)o2)CC1c1ccc(Br)cc1 (centres unmarked) | 16.6%
O=C(OCc1nc2ccc(Cl)cc2n1CCO)c1ccc(O)cc1 | 10%
COc1cc2ncnc(NCc3cccc(F)c3F)c2cc1OC | 13.3%
CCc1ccc(-c2nc(CN3CCC(C(=O)NCCc4ccc(OC)c(OC)c4)CC3)c(C)o2)cc1 | -40%
Cc1cc(C)c(S(=O)(=O)N2CCCC2=O)c(C)c1N(C)S(C)(=O)=O | 14.7%
COc1ccc(C2=CC(=O)OC3(CCCC3)O2)cc1 | -2.47%
CC(=O)N1CCCc2cc(S(=O)(=O)N3CCCC(C(=O)NCc4ccccc4)C3)ccc21 (centres unmarked) | 6.19%
Cc1cccc(OCCn2cc(/C=N/NC(=O)c3ccncc3)c3ccccc32)c1 | 9.7%
COc1ccc(Nc2ccc(N3C(=O)CC(C)C3=O)cc2[N+](=O)[O-])cn1 (centres unmarked) | 9.69%
S=c1[nH]nc(-c2cccnc2)n1/N=C/c1cccs1 | 12.5%
